The results in this text go back to publication PMC7819943, “Rice protein-binding microarrays: a tool to detect cis-acting elements near promoter regions in rice”.

Some of the results follow.

The target in this test is T1, OsWOX13 (Oryza sativa, UniProt Q5QMM3 1-267).
T1 sequence: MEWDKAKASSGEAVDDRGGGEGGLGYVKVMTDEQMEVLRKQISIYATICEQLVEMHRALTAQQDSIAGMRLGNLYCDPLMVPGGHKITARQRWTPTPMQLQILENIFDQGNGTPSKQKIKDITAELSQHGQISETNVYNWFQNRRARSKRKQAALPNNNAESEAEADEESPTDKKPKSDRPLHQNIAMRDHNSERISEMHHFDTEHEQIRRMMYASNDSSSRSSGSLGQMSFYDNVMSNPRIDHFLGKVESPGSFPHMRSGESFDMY
Briefly: protein-binding microarray (RPBM); PBS, 2% BSA, 51.3 ng/ul salmon testes DNA, 50 uM zinc acetate, 200 nM TF, 25 C, 1 h; high values mean tight binding. Conditions: protein: recombinant; tags: N-terminal polyhistidine and DsRed monomer fusion (pET32a); label: CyDye5-dUTP incorporated in the synthesized complementary strand; 3' TTTTT single-stranded linker to array surface; dsDNA, one strand shown. Put shortly:
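Binding signal is reported as fluorescence intensity per feature (arbitrary units) from an Axon 4000B scanner. Incubation used 200 nM of each Ni–NTA-purified, N-terminally polyhistidine- and DsRed-fused transcription factor from E. coli BL21-CodonPlus on a double-stranded custom Agilent array for 1 h at 25 °C, with 50 µM zinc acetate in the buffer, followed by washing.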
As to “TATAAATTTAACTTTAAGAATTAAGCCTGTAGTGAAGTTACGGAGTCACCTAGTGCAG”, the binding signal is 5810 fluorescence intensity (a.u.).

As to “TTTATTTATAAATTAATTTTCATTCGTAAATATGTCACGACGGAGTCACCTAGTGCAG”, the binding signal is 29300 fluorescence intensity (a.u.).

“CAATAGACTAGATTAATAGTAAACCACTTCAATGGTATGTCGGAGTCACCTAGTGCAG”: the binding signal was 6760 fluorescence intensity (a.u.).

For the sequence “ATTGATGATGACGATTTTGAGGAATCTGATGATGATTCTGCGGAGTCACCTAGTGCAG”, the binding signal was 24500 fluorescence intensity (a.u.).

For “CATTTCTAATTATATAATCGTTAGAACATACGAGTATGTTCGGAGTCACCTAGTGCAG”, the binding signal is 6090 fluorescence intensity (a.u.).

Regarding “ATGATTAAAATTGTTTTGAACCGTTGCACGCACCAGCATTCGGAGTCACCTAGTGCAG”, the binding signal is 23400 fluorescence intensity (a.u.).

Regarding “TAACTAATTATGTACTAACAAATTAGCTAGTCTACCATGCCGGAGTCACCTAGTGCAG”, the binding signal is 56600 fluorescence intensity (a.u.).

As for “TTGACTATAGATGATTTGAAGTCAGTGGTTGACTATACTACGGAGTCACCTAGTGCAG”, the binding signal was 8700 fluorescence intensity (a.u.).

With “CTATCATAATTCATAAATCATCGTATACGCGCTTGTCCAGCGGAGTCACCTAGTGCAG”, the binding signal is 6100 fluorescence intensity (a.u.).

As to “CAAAACAAATTACAGATTCCGCCTGTAAACTGCGAGACGACGGAGTCACCTAGTGCAG”, the binding signal is 11100 fluorescence intensity (a.u.).

On to “AATAATGGTGTAATTATGCTCAAAAGATTCATCTCGCAATCGGAGTCACCTAGTGCAG”, for which the binding signal is 17200 fluorescence intensity (a.u.).

Turning to “ATAAATTATTAGTACTATTCCATATACTACATTTTCTTCTCGGAGTCACCTAGTGCAG”, the binding signal is 7220 fluorescence intensity (a.u.).

Turning to “TTGTAATTATACACAATTGTAACTACGAGATTCCAGTCAACGGAGTCACCTAGTGCAG”, the binding signal is 31400 fluorescence intensity (a.u.).

Turning to “TTAGTGACGAGTTTTAAACTTTTATGATTTCTTTTGGACGCGGAGTCACCTAGTGCAG”, the binding signal was 7840 fluorescence intensity (a.u.).

As to “CCCTTGTAATTATTTGATATTAGATCATTCCCTAATATTCCGGAGTCACCTAGTGCAG”, the binding signal is 10500 fluorescence intensity (a.u.).

“AATAATTTCTCCGCGGGAAGGTGGGATTTCTACCCGATTCCGGAGTCACCTAGTGCAG”: the binding signal was 5220 fluorescence intensity (a.u.).

Take “TGTAAATTACTTTTAGGCTTCACTGAATTTACTTTTATATCGGAGTCACCTAGTGCAG”: the binding signal was 3550 fluorescence intensity (a.u.).

Regarding “AATGGATAATGGGATGACATATAATGGTTAACTTACACACCGGAGTCACCTAGTGCAG”, the binding signal is 4470 fluorescence intensity (a.u.).

For “TAAGCCTAATTAATATGTCATTAGCGTCAAATCATTGATCCGGAGTCACCTAGTGCAG”, the binding signal was 25900 fluorescence intensity (a.u.).

“ATGCTTAATTTGGGCTCATTTATAAGGGCCGAAATGGAGGCGGAGTCACCTAGTGCAG”: the binding signal is 13600 fluorescence intensity (a.u.).

Consider “AATGTTGTCACATATAATTATTATGAAGTTTGATAGCTGTCGGAGTCACCTAGTGCAG”, for which the binding signal is 7330 fluorescence intensity (a.u.).

As for “CGCCAACCACCGGCGCTGATTGGAGAGAGATCGGCGATTACGGAGTCACCTAGTGCAG”, the binding signal is 5150 fluorescence intensity (a.u.).

Regarding “GGCTATTTCTGTACTAGTGATTGGTCACTGCTCACACTGACGGAGTCACCTAGTGCAG”, the binding signal was 6240 fluorescence intensity (a.u.).

In the case of “GGAAATTTAACTATTTGCCACTATTAGGTTCGGTAATTATCGGAGTCACCTAGTGCAG”, the binding signal is 4440 fluorescence intensity (a.u.).

Regarding “AAACCAAATTTAATCACCAAAGGTCTAATGTTTGGGAACTCGGAGTCACCTAGTGCAG”, the binding signal was 5220 fluorescence intensity (a.u.).

“ATCAACTTAGAAATTGATGAGACACTTCCCTCAATCTCAGCGGAGTCACCTAGTGCAG”: the binding signal is 4370 fluorescence intensity (a.u.).

On to “TAGTTCATAATTATAGAGTTAGTGGCACATGATGGGAAGCCGGAGTCACCTAGTGCAG”, for which the binding signal is 12300 fluorescence intensity (a.u.).

With “ACTAGATTACTTGTGATGGAAACAGCTCATCTGAGCTCAACGGAGTCACCTAGTGCAG”, the binding signal was 28700 fluorescence intensity (a.u.).

With “AGCTAGACAGCAATCATTCCACACGTTCTCCTCTCCTGCTCGGAGTCACCTAGTGCAG”, the binding signal is 15500 fluorescence intensity (a.u.).

As to “TAATAATAATTAATTTGTTTCCAAACTTATTAAACTAAAACGGAGTCACCTAGTGCAG”, the binding signal is 11200 fluorescence intensity (a.u.).

In the case of “GGCTAATTTGAGGCTAAAATGTGAGGGCTAAACAGTGGGGCGGAGTCACCTAGTGCAG”, the binding signal is 22600 fluorescence intensity (a.u.).

In the case of “GAACTAAAATAGATATTCCTGATTTATAGGGCAGACGAAGCGGAGTCACCTAGTGCAG”, the binding signal is 4040 fluorescence intensity (a.u.).

Take “GATAAATCTAGTAACATTAATTTTAGATGTTTGATCTTTTCGGAGTCACCTAGTGCAG”: the binding signal was 6500 fluorescence intensity (a.u.).

Take “AGATACTAATTTAGAGTATTAAATATAGACTACTTATAAACGGAGTCACCTAGTGCAG”: the binding signal is 4070 fluorescence intensity (a.u.).

On to “GACTAAATGACAAACTACCTTTGCTTCCATCGCCAACTAACGGAGTCACCTAGTGCAG”, for which the binding signal is 7060 fluorescence intensity (a.u.).

In the case of “CCAGGGTGATTAGCTTTACGTTTTAATAATGCTATAGAATCGGAGTCACCTAGTGCAG”, the binding signal is 21000 fluorescence intensity (a.u.).

For the sequence “ACTTGTAGTAATTTAATTTGAAATTCTGTTCTTGCCTCTGCGGAGTCACCTAGTGCAG”, the binding signal is 6760 fluorescence intensity (a.u.).

Turning to “ATCTGGCCCTAATTATTTGTTGCCGAATACCAAGTGTTTGCGGAGTCACCTAGTGCAG”, the binding signal was 4490 fluorescence intensity (a.u.).

“ATGATTAGTTCGTACGTATTGCGCGCACAAACAAATGTATCGGAGTCACCTAGTGCAG”: the binding signal is 13900 fluorescence intensity (a.u.).

For “AAATGATAGACTAAAATTTGGTAATGTCAAATTAGTTTGACGGAGTCACCTAGTGCAG”, the binding signal was 12300 fluorescence intensity (a.u.).

Turning to “GCAATAGACTAGATTAATAGTAAACCACTTCAATGGTATGCGGAGTCACCTAGTGCAG”, the binding signal is 7530 fluorescence intensity (a.u.).

As to “AACTGATTAGAAAATATTTAATAAATGTGTAGTCGAGTGGCGGAGTCACCTAGTGCAG”, the binding signal is 43400 fluorescence intensity (a.u.).

Turning to “GTAATTAGGCTAACTTTATAATTGGATCCGTTCATTCCAACGGAGTCACCTAGTGCAG”, the binding signal is 15900 fluorescence intensity (a.u.).

In the case of “CAGCTTAATTTGCTTGGTCGTTATGCCCACAATCTACACCCGGAGTCACCTAGTGCAG”, the binding signal was 18800 fluorescence intensity (a.u.).

As for “TGCAAAATAAATTAAAACGAGTATTGAAAGATGTCCACTTCGGAGTCACCTAGTGCAG”, the binding signal was 3910 fluorescence intensity (a.u.).

For “AAAACAAATTACAGATTCCATCTGTAAACTGCGAGACGAACGGAGTCACCTAGTGCAG”, the binding signal was 6630 fluorescence intensity (a.u.).

“TTGAAATAATTAAAACTCAATTAATTACCTTCTTGTTTGTCGGAGTCACCTAGTGCAG”: the binding signal is 24800 fluorescence intensity (a.u.).

As for “AATAATTGAAAATTTTGTTTGAGTGCACATCGTGTGCATTCGGAGTCACCTAGTGCAG”, the binding signal is 32400 fluorescence intensity (a.u.).

Consider “GATCATTTAAGTGATTATTTTAATTGGGAAAGTAATAAAACGGAGTCACCTAGTGCAG”, for which the binding signal was 13200 fluorescence intensity (a.u.).

Take “TACTAGTCGTAAATTAATTATCATCTTGTCTTATTTCTTTCGGAGTCACCTAGTGCAG”: the binding signal is 8300 fluorescence intensity (a.u.).

On to “AATTCCGATTTCTCCCTAAATTGGGAGGCCCATTGCTGAGCGGAGTCACCTAGTGCAG”, for which the binding signal is 3710 fluorescence intensity (a.u.).

As to “ATTACAATATTATAATTATATAACACAATTAAGGTAGAGTCGGAGTCACCTAGTGCAG”, the binding signal is 11600 fluorescence intensity (a.u.).

On to “AAGAGTGGTAAATAATTAATTATTCCATTATCTTCAGGTGCGGAGTCACCTAGTGCAG”, for which the binding signal was 25600 fluorescence intensity (a.u.).

Turning to “ACCACCTGCTGCTAATTGACAAGTTGTCTAATCAGTCGATCGGAGTCACCTAGTGCAG”, the binding signal was 30000 fluorescence intensity (a.u.).
